No constants are given. Whether binding was seen depends on the method and setting. Binding seen in cells or lysates may run through a third protein. Some results given as binding are weak or reduced against the parent protein; the word gives no strength. For some assays here: Sequences can lack the tags named with a protein.
Legend:
[1] = molecular target: T1, GST-PLD1-PH (pleckstrin homology domain of PLD1, 217-331) (UniProt Q13393); assay: pull-down; panel of GST-PLD1 fragments on glutathione-sepharose 4B beads mixed with cell lysates or in vitro-translated proteins (which is not stated), 4°C, 1 h, washed five times with PBS containing 1% triton-X 100; only the target purified
T1 sequence: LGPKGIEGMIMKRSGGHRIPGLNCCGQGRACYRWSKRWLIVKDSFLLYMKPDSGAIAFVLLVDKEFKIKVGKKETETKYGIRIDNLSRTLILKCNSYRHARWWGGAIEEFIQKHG

The chains behind the UniProt entries cited, without tags or fusion partners.
UniProt Q9GZT9: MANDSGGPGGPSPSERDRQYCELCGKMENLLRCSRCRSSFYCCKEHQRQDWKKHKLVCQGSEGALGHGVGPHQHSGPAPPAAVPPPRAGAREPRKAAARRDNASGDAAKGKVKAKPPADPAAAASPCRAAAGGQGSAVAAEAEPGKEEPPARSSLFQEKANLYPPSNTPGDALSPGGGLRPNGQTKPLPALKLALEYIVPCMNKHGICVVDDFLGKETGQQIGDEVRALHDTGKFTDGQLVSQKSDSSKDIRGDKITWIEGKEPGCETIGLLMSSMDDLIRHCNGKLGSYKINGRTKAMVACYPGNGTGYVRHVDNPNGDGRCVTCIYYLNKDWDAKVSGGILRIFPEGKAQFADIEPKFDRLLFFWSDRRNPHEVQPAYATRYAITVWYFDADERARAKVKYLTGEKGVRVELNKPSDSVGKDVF
UniProt P40337: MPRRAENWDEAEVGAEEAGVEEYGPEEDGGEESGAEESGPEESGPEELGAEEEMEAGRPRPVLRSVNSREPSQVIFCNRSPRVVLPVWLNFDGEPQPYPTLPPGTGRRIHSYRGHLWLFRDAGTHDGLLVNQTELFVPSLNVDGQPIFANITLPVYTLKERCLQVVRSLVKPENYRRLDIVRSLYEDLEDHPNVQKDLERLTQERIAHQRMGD
UniProt Q16665: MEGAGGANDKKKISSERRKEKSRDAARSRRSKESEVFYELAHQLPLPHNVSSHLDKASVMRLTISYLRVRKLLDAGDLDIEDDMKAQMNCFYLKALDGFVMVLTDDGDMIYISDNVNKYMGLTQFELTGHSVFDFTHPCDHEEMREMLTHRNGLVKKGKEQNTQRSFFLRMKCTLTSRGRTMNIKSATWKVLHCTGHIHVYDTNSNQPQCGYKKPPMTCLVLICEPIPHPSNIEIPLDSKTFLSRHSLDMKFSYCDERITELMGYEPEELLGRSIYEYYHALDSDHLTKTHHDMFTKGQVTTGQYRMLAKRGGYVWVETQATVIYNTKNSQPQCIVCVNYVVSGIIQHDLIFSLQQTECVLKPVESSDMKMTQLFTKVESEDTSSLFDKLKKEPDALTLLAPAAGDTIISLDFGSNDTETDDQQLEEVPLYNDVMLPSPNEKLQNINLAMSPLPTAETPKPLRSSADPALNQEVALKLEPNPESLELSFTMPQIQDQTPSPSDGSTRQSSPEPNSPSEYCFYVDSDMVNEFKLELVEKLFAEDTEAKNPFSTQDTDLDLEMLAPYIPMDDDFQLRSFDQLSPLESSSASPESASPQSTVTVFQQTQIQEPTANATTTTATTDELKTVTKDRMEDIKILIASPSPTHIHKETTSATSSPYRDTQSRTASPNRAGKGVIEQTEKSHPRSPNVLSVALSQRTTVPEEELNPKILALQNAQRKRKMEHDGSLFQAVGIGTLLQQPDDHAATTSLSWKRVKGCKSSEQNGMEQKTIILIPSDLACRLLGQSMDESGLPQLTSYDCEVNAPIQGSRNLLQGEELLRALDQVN

[2] = molecular target: T2, GST-PLD1 F2 region (331-497) (UniProt Q13393); assay: as above
T2 sequence: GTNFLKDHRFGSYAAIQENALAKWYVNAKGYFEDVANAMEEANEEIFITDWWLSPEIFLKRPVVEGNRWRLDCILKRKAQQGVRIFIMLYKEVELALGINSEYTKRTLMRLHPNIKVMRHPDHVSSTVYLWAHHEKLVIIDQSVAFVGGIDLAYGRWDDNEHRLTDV

[3] = molecular target: T3, Endogenous PLD1 (human (endogenous in HEK293)) (UniProt Q13393); assay: co-IP; HEK293 lysates (passive-lysis buffer, gentle sonication), antibody with protein A sepharose beads, immunoblot; normoxia, many panels with MG132; some panels with co-expressed PLD1, PLD1-PH, PHD2 or VHL or with DFX; for PLD1-PH under normoxia and hypoxia
T3 sequence: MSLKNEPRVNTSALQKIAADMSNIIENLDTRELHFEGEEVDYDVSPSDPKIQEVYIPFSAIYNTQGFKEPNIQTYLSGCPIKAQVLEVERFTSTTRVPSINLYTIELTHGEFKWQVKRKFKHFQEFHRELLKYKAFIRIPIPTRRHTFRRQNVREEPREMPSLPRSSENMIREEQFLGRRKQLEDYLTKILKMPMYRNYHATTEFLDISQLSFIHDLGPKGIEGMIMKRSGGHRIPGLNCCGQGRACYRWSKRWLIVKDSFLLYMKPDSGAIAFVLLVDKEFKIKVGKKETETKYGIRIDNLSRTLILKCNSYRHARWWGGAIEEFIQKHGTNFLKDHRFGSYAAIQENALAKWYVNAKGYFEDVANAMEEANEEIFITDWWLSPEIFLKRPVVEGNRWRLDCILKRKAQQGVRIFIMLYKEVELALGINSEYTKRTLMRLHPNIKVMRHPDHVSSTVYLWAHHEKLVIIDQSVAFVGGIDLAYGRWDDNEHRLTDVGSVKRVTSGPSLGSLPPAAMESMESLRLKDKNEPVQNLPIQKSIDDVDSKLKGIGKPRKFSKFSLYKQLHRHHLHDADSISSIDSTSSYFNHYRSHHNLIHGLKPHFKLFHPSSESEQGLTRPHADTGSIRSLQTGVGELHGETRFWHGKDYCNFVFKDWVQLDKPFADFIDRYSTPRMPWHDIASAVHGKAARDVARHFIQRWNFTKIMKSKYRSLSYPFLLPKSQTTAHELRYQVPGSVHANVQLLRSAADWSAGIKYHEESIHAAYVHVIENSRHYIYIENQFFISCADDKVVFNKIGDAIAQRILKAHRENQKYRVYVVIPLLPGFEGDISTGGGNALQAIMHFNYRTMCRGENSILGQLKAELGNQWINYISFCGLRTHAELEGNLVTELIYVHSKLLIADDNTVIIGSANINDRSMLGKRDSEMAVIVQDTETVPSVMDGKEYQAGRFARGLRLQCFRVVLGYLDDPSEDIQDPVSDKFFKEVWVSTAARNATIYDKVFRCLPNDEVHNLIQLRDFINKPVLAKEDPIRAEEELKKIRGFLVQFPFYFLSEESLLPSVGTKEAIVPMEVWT

[4] = molecular target: T4, Phospholipase D1 (PLD1), wild type (UniProt Q13393); assay: as above
T4 sequence: T3 sequence

[5] = molecular target: T4, Phospholipase D1 (PLD1), wild type; assay: co-IP; HEK293 cells cultured under hypoxic conditions (1% O2) before immunoprecipitation
[6] = molecular target: T4, Phospholipase D1 (PLD1), wild type; assay: co-IP; peptide competition: biotinylated hydroxylated or non-hydroxylated HIF-1α peptide (556-574) added to the immunoprecipitation mixture of cell lysates, MG132; the pairs that are blocked
[7] = molecular target: T1, GST-PLD1-PH (pleckstrin homology domain of PLD1, 217-331); assay: pull-down; GST fusion on glutathione-sepharose 4B beads mixed with in vitro-translated protein, 4°C, 1 h, washed five times with PBS containing 1% triton-X 100; only the target purified
[8] = molecular target: T3, Endogenous PLD1 (human (endogenous in HEK293)); assay: co-IP; sequential: HEK293 lysate (MG132) immunoprecipitated with anti-PHD2; released proteins re-immunoprecipitated with antibody to PLD and blotted with anti-HIF-1α

With “PHD2 (prey of the GST pull-down of Figure 2J) (from UniProt Q9GZT9 1-426) (enzyme)” the binding [1] was “binds” and the binding [2] was “binds”.

In the case of “VHL (prey of the GST pull-down of Figure 3G) (from UniProt P40337 1-213)”, the binding [1] is reported as “binds” and the binding [2] is reported as “binds”.

“von Hippel-Lindau protein (HA-VHL), wild type (from UniProt P40337 1-213)” was tested, and the binding [3] was “binds”, the binding [4] was “binds” and the binding [5] was “no binding (condition: under hypoxia (1% O2))”. The binding [6] was “binds”.

“In vitro-translated HA-HIF-1α (from UniProt Q16665 1-826)” was tested, and the binding [7] was “binds”.

With “Endogenous HIF-1α (from UniProt Q16665 1-826)” the binding [8] was “binds”.

With “HIF-1α (source not stated for the experiment) (from UniProt Q16665 1-826)” the binding [1] was “binds”.

From paper PMC4323006
